# Measured values reported in the supplement of paper PMC11417369.
# ± gives the standard deviation of the averaged measurements. The list shows a part of the results.
# System: PfAP2-I AP2 domain 3 (GST-tagged)
# Experiment: gcPBM binding intensity (ln(normalized median fluorescence intensity)); higher = stronger DNA binding
# Method in brief: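 Binding intensity is defined as the maximum Masliner-normalised natural-log median intensity across replicate spots for either probe orientation. It was measured on an Agilent 4 × 180k array of primer-extended double-stranded 36-bp intergenic genomic probes and negative controls, to which GST-tagged P. falciparum DNA-binding domains made in E. coli were applied for 1 h in 1× PBS with 1% milk, 0.2 mg/ml BSA, 0.5% salmon testes DNA and 0.03% Triton X-100. Detection was by Alexa488 anti-GST antibody and scanning at 488 nm.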
row,Sequence,gcPBM binding intensity (ln)
1,AAAAAAAAAAAAAAAACACACAAACGCTTTTTTTTT [CACACA_site4545],8.92 ± 0.55
2,GGATAAGAGGCATATACACACAATTTAAAAAAATAA [CACACA_site4657],7.94 ± 0.3
3,ATAAATATTGCGTGCACACACATAATATTTATATAT [CACACA_site7136],10.49 ± 0.021
4,TATAATATATTCATGTGTACATATATTTCGAACATA [XGTACX_site1754],8.01 ± 0.2
5,CGAAAAATATGTATGAGTACTTATATTTAAACTATA [XGTACX_site1911],7.57 ± 0.29
6,ATGTCATAAAAACATATACACACTTGAAATATAAAA [CACACA_site2329],7.76 ± 0.57
7,CATTCCTATTATTATACACACAAATTAAGAATTCAA [CACACA_site787],7.85 ± 0.47
8,TATGTTTCTATATATACATGCAAGAAGAAATGTACT [TGCATGCA_site891],7.98 ± 0.78
9,ATATGTACAAATTATACACACATGTACAATTATATA [CACACA_site1253],8.07 ± 0.39
10,AAAAAAAAAAAAGAAAAATATATATATAAATAAATA [GTGCAC_negctrl_site569],7.43 ± 0.33
11,ATGTCACAATTTTTCACACACAAAATTTATATACAT [CACACA_site2030],8.04 ± 0.71
12,AAATAAAGAAATGCAAGTACATACTAAACTAATCCA [XGTACX_site1209],7.61 ± 0.45
13,TCTTAAATTATGATAAAATATAATAAATAAATAAAT [CACACA_negctrl_site1520],7.67 ± 0.73
14,TTGTTTTATACATAGTGTACATATAAAAATTTTTTT [XGTACX_site7549],8.03 ± 0.2
15,ATATATATTATAATCTGTACATAAATATATAATAAA [XGTACX_site5425],7.81 ± 0.35
16,ATATATAAATATGAAACACACATTCTATTTAATTCG [CACACA_site1450],7.55 ± 0.46
17,CAGATAAATAAACACACACACACATATATATATATA [CACACA_site9311],9.28 ± 0.38
18,ATTTTCCCTAGAATATGTACACATAGTAAATATTAT [XGTACX_site7499],7.76 ± 0.42
19,ATAATATAAATATACACACACACATATATATATATA [CACACA_site2905],9.26 ± 0.47
20,TAATAAGGAATTTATAGTACATATTCATATGTTTTA [XGTACX_site2331],7.17 ± 0.35
21,ATAAAAATTTATATATGTACTTAATTTTTAATTTTT [XGTACX_site7482],7.64 ± 0.3
22,TATGTTTTTGAATGAGTGCATTAAAATAAAACATTT,11.3 ± 0.61
23,TTCTTGTATATTCATAGTACATATAATGTCGTGTTA [XGTACX_site8991],7.75 ± 0.47

row,Sequence,gcPBM binding intensity (ln)
1,GTTAATATTTTTGGGGGTACTTAAAAAAAAAAAAAA [XGTACX_site1477],9.29 ± 0.26
2,AATTTAAAAAATAATTGTACAAAAAAAAAAAATCAG [XGTACX_site4576],8.12 ± 0.3
3,TTACATACAATTGGTGTGCACATATATATATATATA,10.29 ± 0.049
4,GAATATTAATTCAAGTGTACAAATATATATATAATT [XGTACX_site5103],7.76 ± 0.53
5,CAAAAGGATAGGCACACACACACACCGATATATATA [CACACA_site8685],8.39 ± 0.55
6,ACTTATTTCGATATGTGTACTTAATATATATATTTA [XGTACX_site6616],7.89 ± 0.39
7,AAAAATATTTTGGTTTGTACATATATTTTTACAATA [XGTACX_site8691],7.65 ± 0.44
8,ATTTTTGTAATTATTTGTACACATTTATTTATGTGT [XGTACX_site1864],7.85 ± 0.42
9,AGACCTTTAATTTGTGTGCACATAATTAGTGTACAT [GTGCAC_site9434],9.96 ± 0.16
10,ATTAAAAAAAAAAAAAGTACTTATAATTATACTCGT [XGTACX_site4852],7.59 ± 0.43
11,TTCAAATTGTTTATATGTACTTATAAAAATTGTCTG [XGTACX_site977],7.68 ± 0.38
12,ACAAATAAAAATATTACACACACTATTATATTGATA [CACACA_site1494],7.74 ± 0.6
13,TTATATTATATATATGTGCACATTTTTAAACTTGGA,9.58 ± 0.38
14,AAATATTTATATGTTACACACTGTTGATAATTTTCT [CACACA_site1347],7.49 ± 0.79
15,GGAAGATGAAAAATAAAGCATGTGCTGTACAAACGA [CACACA_negctrl_site1625],8.96 ± 0.38
16,ATTCACATACATTACTTACACACCATATTAATATAT [CACACA_site459],8.21 ± 0.88
17,TAAAAAATAAGATATACACACATATATATATATATA [CACACA_site2324],9.39 ± 0.28
18,TAACATATTAATAACATATTTATAATATATTAATAA [TGCATGCA_negctrl_site243],7.11 ± 0.42
19,AAAAAAAAAAAAAAGGAACACACAAGTAACAATAAA [CACACA_site8792],8.11 ± 0.45
20,AATTATACTTCCTTCACACAGTTACATCATATATTA [CACACA_site5942],8.23 ± 0.54
21,AAAATCGTGTTCTGAATACACACTAATACAAAGTTG [CACACA_site3985],7.68 ± 0.57
22,AAAAATACCTGAATATGTACATATGATCAATGGGCC [XGTACX_site887],7.72 ± 0.74
23,ATTCATATATATTATACACACACATATATAAATATA [CACACA_site8228],8.09 ± 0.5

row,Sequence,gcPBM binding intensity (ln)
1,AAATAAAATAAAAACATGCACACTTTATTTTTTTTA [CACACA_site2800],8.54 ± 0.55
2,AGAAGTTTAAAAAGCACACAAAAAAAAAAAAAAAGA [CACACA_site3309],8.38 ± 0.26
3,TAAAAATATAAATTTTGTACGTAAAAAATGGTTCTT [XGTACX_site1506],7.71 ± 0.55
4,TGACCGTTTTAAGAGTGTACAAAAAAAAAAAAAAAA [XGTACX_site4141],8.29 ± 0.67
5,TATTCTATATAATAATGTACGTGATTTAAATTTTCA [XGTACX_site6650],7.74 ± 0.45
6,CATATTTGTTGACACACACACATATTTATATAAATA [CACACA_site7648],8.15 ± 0.39
7,GGGAGGATATTACACAGTACCCAGAAAATCTACGGA [XGTACX_site2551],8.08 ± 0.27
8,TTTATATGTTTAAAATGTACATGTGGTAAAAATTTT [XGTACX_site5907],8.33 ± 0.3
9,TATTCCTTATTATAATTCTTAAATAAAAAAAAAAAA [TGCATGCA_negctrl_site45],7.85 ± 0.58
10,ATATATAAACTGAAGGGTACAATGAAAAAAGAACTT [XGTACX_site7219],8 ± 0.73
11,TAGGATTTTTAGTTTATTGTAACTATTATTTTATTT [CACACA_negctrl_site829],7.22 ± 0.61
12,CCCATTATTGTTGGGGGTACAATTTTGAATATATAT [XGTACX_site2227],9.34 ± 0.085
13,ATATATTTATAATACACATGCAATGATATAATATAT [TGCATGCA_site20],8.43 ± 0.75
14,CATATATACATATATACACACATATATATATATATA [CACACA_site645],9.28 ± 0.73
15,GTGTGGTTACAGACACGAACACATTTTTTAAATATT [CACACA_negctrl_site83],7.83 ± 0.28
16,GTAAGAAAGAAAGGAAGTACGTAAGAAAGTAAGAAC [XGTACX_site1239],8.49 ± 0.84
17,TTTTTTTTTCTGTGAGTGCATGTAATAAAATAAATT [GTGCAC_site9740],9.305 ± 0.049
18,TTAATTAGAAATCATACACACATATATATATATATA [CACACA_site173],9.48 ± 0.5
19,CATTCAAACAAAAAAAGTACTCATCACATAATATAT [XGTACX_site1251],7.87 ± 0.3
20,GCAAAATATTTAAAATAATATATGTGTATATTTTTA [GTGCAC_negctrl_site149],7.18 ± 0.43
21,TTTATATTGTTTTATTGTACATATATATTTATACAT [XGTACX_site6821],7.83 ± 0.56
22,AAAAAAAAAAAAAAACTTACGATTTTAAAAAGATGG [GTGCAC_negctrl_site291],8.14 ± 0.64
23,GAAATGTACAAATACGTACACACATATATATATATA [CACACA_site1541],9.29 ± 0.27

row,Sequence,gcPBM binding intensity (ln)
1,AAATATATGAATAAATGTACGAAATGAATGGATGAA [XGTACX_site7108],8.1 ± 0.7
2,AAACATGTATTTTATTGTACACATTCATAAATCACA [XGTACX_site1420],8.13 ± 0.36
3,TTATAATCTTATATATGTACATATATATATTATTAT [XGTACX_site7780],7.56 ± 0.33
4,TACATGTATGTAATATGTTTTATTTTTTTCATCTCT [XGTACX_negctrl_site79],7.21 ± 0.4
5,TTTTAAATATGCAGATGTACATTATAATGTTTTATT [XGTACX_site2079],7.88 ± 0.29
6,TACATATTTTTATATACACACAATAATTATTATAAA [CACACA_site1659],7.83 ± 0.39
7,TATATTTATTATAACACACACATATATATATTATAT [CACACA_site1061],7.91 ± 0.31
8,GATATGTACTAATACACACACATATAGATTTATATA [CACACA_site6610],8.06 ± 0.33
9,TGTTTGAATAACAAAAAAAAAAAAAAAATTAAAAAA [CACACA_negctrl_site1332],7.42 ± 0.59
10,ATTTTAAATGTTATGCGTACATATTAATCCTACTTA [XGTACX_site1344],7.99 ± 0.33
11,TTTTAAAAATCTATATGTACACAATACGTCTATAAA [XGTACX_site5787],8.08 ± 0.26
12,TATGAAAATGTTCATACACACATAAAAAAAAAAAAA [CACACA_site3236],7.91 ± 0.38
13,TACACATACACATACACACGCATAGAAACATACGAA [CACACA_site2137],8.04 ± 0.45
14,AAAAAAAAAAAAAACACACAAACGCTTTTTTTTTTT [CACACA_site686],8.4 ± 0.93
15,TTATTTACCATCTCTACACACAAAAATTGATGTAGA [CACACA_site2811],7.75 ± 0.4
16,ATATGTATTAAGTGTACACATATAATGTATTTTGTT [CACACA_site4177],8.02 ± 0.47
17,TCATAATGAAAACAAGCACACATACATAAAATAAAA [CACACA_site9069],7.82 ± 0.57
18,TAAATTATATTATGCACACTTAAAAATATATTTAAC [CACACA_site3512],10.4 ± 0.49
19,TTTTTATATATCACGTGTACATATTTATTTTTACTC [XGTACX_site8049],8.05 ± 0.49
20,GAATCATCCAAAATTGCATGCAAGGAAGAAGAAAAA [TGCATGCA_site764],7.83 ± 0.84
